Results as given in patent publication US20080114054A1, “Compositions and methods for reducing antimicrobial resistance of microbes” (priority 2006, published 2008).

Assays:
[1] = test system: Salmonella; assay type: cell-based; conditions: composition listed in Table 1 in presence of the antibiotic; for Colonies showing decreasing inhibition zone / Colonies showing increasing inhibition zones / Colonies with no change in inhibition zone: 30 colonies; for % colonies showing increase in inhibition zone: of 30 tested colonies
[2] = test system: S. saprophyticus; test: Inhibition zone of S. saprophyticus colonies exposed to composition of Table 1 in presence of antibiotics; assay type: cell-based; conditions: composition listed in Table 1 in presence of the antibiotic; for Colonies showing a decrease in inhibition zone / Colonies showing an increase in inhibition zone / Colonies with no change in inhibition zone: 15 colonies; for Percent colonies showing increase in inhibition zone (%): of 15 tested colonies
[3] = test system: S. aureus; test: Inhibition zone of S. aureus colonies exposed to composition of Table 1 in presence of antibiotic GM; assay type: cell-based; conditions: composition listed in Table 1 in presence of the antibiotic, 15 colonies
[4] = test system: Listeria; test: Inhibition zone of Listeria colonies exposed to composition of Table 1 in presence of antibiotics; assay type: cell-based; conditions: composition listed in Table 1 in presence of the antibiotic; for Colonies showing a decreasing inhibition zone / Colonies showing increasing inhibition zone / Number of colonies with no change in inhibition zone: 30 colonies; for Percent colonies showing increase in inhibition zone (%): of 30 tested colonies
[5] = test system: Brucella; assay type: cell-based; conditions: composition listed in Table 1 in presence of the antibiotic; for Colonies showing decreasing inhibition zone / Colonies showing increasing inhibition zone / Colonies with no change in inhibition zone: 30 colonies; for Percent colonies showing increase in inhibition zone (%): of 30 tested colonies
[6] = test system: Yerssinia; test: Inhibition zone of Yerssinia colonies exposed to composition of Table 1 in presence of antibiotics; assay type: cell-based; conditions: composition listed in Table 1 in presence of the antibiotic; for Colonies showing decrease in inhibition zone / Colonies showing increase in inhibition zone / Colonies with no change in inhibition zone: 30 colonies; for Percent colonies showing increase in inhibition zone (%): of 30 tested colonies
[7] = test system: E. coli; test: Inhibition zone of E. coli colonies exposed to composition of Table 1 in presence of antibiotics
[8] = 1 h, composition listed in Table 1 in presence of the antibiotic, 30 colonies

Substance: Gentamicin [GM]
- Colonies showing decreasing inhibition zone ([1]; 1 h): 3
- Colonies showing increasing inhibition zones ([1]; 1 h): 27
- Colonies with no change in inhibition zone ([1]; 1 h): 0
- % colonies showing increase in inhibition zone ([1]; 1 h): 90.0%
- Colonies showing decreasing inhibition zone ([1]; 2 h): 2
- Colonies showing increasing inhibition zones ([1]; 2 h): 26
- Colonies with no change in inhibition zone ([1]; 2 h): 2
- % colonies showing increase in inhibition zone ([1]; 2 h): 86.7%
- Colonies showing a decrease in inhibition zone ([2]; 1 h): 0
- Colonies showing an increase in inhibition zone ([2]; 1 h): 14
- Colonies with no change in inhibition zone ([2]; 1 h): 1
- Percent colonies showing increase in inhibition zone (%) ([2]; 1 h): 93.3%
- Colonies showing a decrease in inhibition zone ([2]; 2 h): 0
- Colonies showing an increase in inhibition zone ([2]; 2 h): 15
- Colonies with no change in inhibition zone ([2]; 2 h): 0
- Percent colonies showing increase in inhibition zone (%) ([2]; 2 h): 100.0%
- Colonies showing a decrease in inhibition zone ([3]; 1 h): 0
- Colonies showing an increase in inhibition zone ([3]; 1 h): 14
- Number of colonies with no change in inhibition zone ([3]; 1 h): 1
- Colonies showing a decrease in inhibition zone ([3]; 2 h): 1
- Colonies showing an increase in inhibition zone ([3]; 2 h): 14
- Number of colonies with no change in inhibition zone ([3]; 2 h): 0
- Colonies showing a decreasing inhibition zone ([4]; 1 h): 3
- Colonies showing increasing inhibition zone ([4]; 1 h): 26
- Number of colonies with no change in inhibition zone ([4]; 1 h): 1
- Percent colonies showing increase in inhibition zone (%) ([4]; 1 h): 86.7%
- Colonies showing a decreasing inhibition zone ([4]; 2 h): 2
- Colonies showing increasing inhibition zone ([4]; 2 h): 28
- Number of colonies with no change in inhibition zone ([4]; 2 h): 0
- Percent colonies showing increase in inhibition zone (%) ([4]; 2 h): 93.3%
- Colonies showing decreasing inhibition zone ([5]; 1 h): 4
- Colonies showing increasing inhibition zone ([5]; 1 h): 22
- Colonies with no change in inhibition zone ([5]; 1 h): 4
- Percent colonies showing increase in inhibition zone (%) ([5]; 1 h): 73.3%
- Colonies showing decreasing inhibition zone ([5]; 2 h): 13
- Colonies showing increasing inhibition zone ([5]; 2 h): 14
- Colonies with no change in inhibition zone ([5]; 2 h): 3
- Percent colonies showing increase in inhibition zone (%) ([5]; 2 h): 46.7%
- Colonies showing decrease in inhibition zone ([6]; 1 h): 3
- Colonies showing increase in inhibition zone ([6]; 1 h): 24
- Colonies with no change in inhibition zone ([6]; 1 h): 3
- Percent colonies showing increase in inhibition zone (%) ([6]; 1 h): 80.0%
- Colonies showing decrease in inhibition zone ([6]; 2 h): 1
- Colonies showing increase in inhibition zone ([6]; 2 h): 27
- Colonies with no change in inhibition zone ([6]; 2 h): 2
- Percent colonies showing increase in inhibition zone (%) ([6]; 2 h): 90.0%
- Percent colonies showing increase in inhibition zone (%) ([7]; 1 h): 73.3%
- Number of colonies showing a decrease in inhibition zone [7, 8]: 6
- Number of colonies showing an increase in inhibition zone [7, 8]: 22
- Number of colonies with no change in inhibition zone [7, 8]: 2
- Number of colonies showing an increase in inhibition zone ([7]; 2 h, composition listed in Table 1 in presence of the antibiotic, 30 colonies): 12
- Percent colonies showing increase in inhibition zone (%) ([7]; 2 h, composition listed in Table 1 in presence of the antibiotic, of 30 tested colonies): 40.0%

Like-named read-outs stand apart in the source and are kept apart here.
